Results from PubChem BioAssay AID1768 (National Center for Advancing Translational Sciences (NCATS), 2009).
Among all 270,000 compounds or so, about 620 (0.23%) were called active. Inconclusive results, whose numbers are uncertain, are shown with a selection of clear calls. Calls come from the whole dose curve; as a rule, active = well fitted inhibition curve with a large enough effect in the polarisation, with a control signal flat (not every such curve was filed as active); inconclusive = small, poorly fitted or top-dose-only effect, or effect the other way, or a change in a side signal; inactive = no such curve, though single readings can be large or run the other way; the % refers to the polarisation. A potency beside an inconclusive call is a rough fit, not a confirmed value. A note “side channel” means that the fit belongs to a control or component signal, not to the main read-out.

target: Menin (Homo sapiens) (UniProt O00255); experiment: qHTS Assay for Inhibitors Targeting the Menin-MLL Interaction in MLL Related Leukemias: Competition With Texas Red Labeled MLL-derived Mutant Peptide; conditions: fluorescence polarization; series mostly up to 61.6 µM
Sequence of UniProt O00255 (O00255 whole entry, looked up): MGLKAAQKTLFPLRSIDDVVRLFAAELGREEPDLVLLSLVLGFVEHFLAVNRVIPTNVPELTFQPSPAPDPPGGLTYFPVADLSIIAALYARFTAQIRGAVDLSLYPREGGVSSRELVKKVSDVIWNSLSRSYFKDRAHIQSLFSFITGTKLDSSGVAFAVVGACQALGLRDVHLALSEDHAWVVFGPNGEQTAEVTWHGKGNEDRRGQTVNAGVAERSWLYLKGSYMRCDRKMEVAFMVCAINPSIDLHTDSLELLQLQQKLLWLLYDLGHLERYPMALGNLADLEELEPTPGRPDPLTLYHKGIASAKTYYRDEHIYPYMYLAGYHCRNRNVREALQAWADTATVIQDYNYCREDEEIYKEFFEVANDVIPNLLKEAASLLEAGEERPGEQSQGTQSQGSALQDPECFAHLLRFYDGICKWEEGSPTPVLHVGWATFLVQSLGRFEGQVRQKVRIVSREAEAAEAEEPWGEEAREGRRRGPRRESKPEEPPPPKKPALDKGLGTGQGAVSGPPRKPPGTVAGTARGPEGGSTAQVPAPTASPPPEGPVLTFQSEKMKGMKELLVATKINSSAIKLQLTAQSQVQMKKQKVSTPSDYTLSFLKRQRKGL
Potency is the fitted concentration of half-maximal effect; tags give direction and shape of the fitted curve or compound fluorescence and quenching.

Row | SMILES | Potency
1 | CCN(CC(=O)NCc1cccs1)C(=O)c1cccc(S(=O)(=O)N2CCc3ccccc32)c1 | inactive
2 | CC(=O)N1CCN(c2ccc(Nc3nc(C)nc4c3oc3ccccc34)cc2)CC1 | inconclusive: 31.6 µM [quencher, side channel, single point]
3 | COc1ccc2c(c1)C(=O)[C@H](OC(=O)NCCOc1ccccc1)[C@@H](c1ccc(OC)c(Br)c1)O2 | inactive
4 | CC(Sc1nnnn1C1CCCCC1)C(=O)O (stereo unspecified) | inconclusive: 28.2 µM [quencher, side channel, partial curve]
5 | Nc1nonc1-c1noc(COc2ccccc2Cl)n1 | inconclusive: 28.2 µM [quencher, side channel, partial curve]
6 | COc1ccc(Nc2ncccc2C(=O)NCc2ccccc2)cc1 | inconclusive: 25.1 µM [quencher, side channel, partial curve]
7 | Cc1cc(C(C)(C)C)cc(S(=O)(=O)Nc2ccc(O)c(C(=O)O)c2)c1C | inconclusive: 10 µM [quencher, side channel, partial curve]
8 | CN(C)S(=O)(=O)c1cccc(NC(=O)CSc2cccc3cccnc23)c1 | inconclusive: 39.8 µM [quencher, side channel, single point]
9 | NS(=O)(=O)c1cccc(NC(=O)Cc2ccc(Cl)c(Cl)c2)c1 | inconclusive: 35.5 µM [quencher, side channel, single point]
10 | O=C(CCCC(=O)OCC(=O)c1ccc(Cl)cc1Cl)Nc1cc(C(F)(F)F)ccc1Cl | inconclusive: 39.8 µM [inhibitor, single point]
11 | O=C(Nc1nc2ccc(F)cc2s1)c1ccccn1 | inactive
12 | O=C(CN(Cc1ccco1)C(=O)CNS(=O)(=O)c1ccccc1)NCc1ccccc1 | inactive
13 | O=C(Nc1cccc(F)c1)C1CC(=O)N(c2ccc(Cl)cc2)C1 (stereo unspecified) | inconclusive: 28.2 µM [quencher, side channel, single point]
14 | Oc1ccc(-c2csc(Nc3ccccn3)n2)c(O)c1 | inconclusive: 12.6 µM [quencher, side channel, partial curve]
15 | COc1ccccc1N1CCN(C(=O)c2cccc(Oc3ccccc3)c2)CC1 | inconclusive: 3.16 µM [fluorescent, side channel, full curve]
16 | COc1cccc(NC(=S)NNC(=O)C(C)n2nc(C)c([N+](=O)[O-])c2C)c1 (stereo unspecified) | inconclusive: 11.2 µM [inhibitor, partial curve]
17 | COC(=O)C(CC(C)C)NS(=O)(=O)c1cc(Br)ccc1Br (stereo unspecified) | inactive
18 | Nc1ccc(C(=O)OCC(=O)N2c3ccccc3Sc3ccccc32)cc1[N+](=O)[O-] | inconclusive: 11.2 µM [quencher, side channel, partial curve]
19 | COc1ccccc1N1CCN(CCN2C(=O)CC3(CCCC3)CC2=O)CC1 | inconclusive: 3.55 µM [fluorescent, side channel, full curve, poor fit]
20 | CC[C@H](C)N(C)C(=O)c1cc2ccccc2c(-c2ccccc2Cl)n1 | inconclusive: 8.91 µM [fluorescent, side channel, full curve, poor fit]
21 | CCc1ccc(N/C(=N/c2nc(C)cc(C)n2)NC(C)=O)cc1 | inconclusive: 11.2 µM [fluorescent, side channel, partial curve]

Row | SMILES | Potency
22 | Cn1c(SCC(=O)NCc2ccco2)nnc1-c1ccccc1 | inactive
23 | CNC(=S)N/N=C/c1c(C)c(C(=O)c2ccc(F)cc2)n2ccccc12 | inconclusive: 14.1 µM [quencher, side channel, partial curve]
24 | S=C(Nc1ccccc1)Nc1nc2ccccc2n1CCOc1ccc(Br)cc1 | inactive
25 | CN(C)/C=C/C(=O)/C=C/c1cn(-c2ncc(C(F)(F)F)cc2Cl)c2ccccc12 | inconclusive: 14.1 µM [quencher, side channel, partial curve]
26 | Cc1cc2oc(=O)cc(CN3CCOCC3)c2cc1C(C)C | inconclusive: 7.94 µM [inhibitor, full curve]
27 | COC(=O)Nc1cc(C(F)(F)F)ccc1N1CCN(c2ccccc2)CC1 | inconclusive: 39.8 µM [inhibitor, single point]
28 | O=C1c2ccccc2-c2cccc(NS(=O)(=O)c3ccc(C(F)(F)F)cc3)c21 | inconclusive: 39.8 µM [quencher, side channel, single point]
29 | CNC(=O)C[C@@H](N)C(=O)N[C@@H](C(=O)N[C@@H]1C(=O)N2[C@@H]1SC(C)(C)[C@@H]2C(=O)O)c1ccc(O)cc1 | inactive
30 | O=C1N/C(=N\N=C\c2cccs2)SC1Cc1cccc(Cl)c1 (stereo unspecified) | inconclusive: 10 µM [quencher, side channel, partial curve]
31 | COc1ccccc1NC(=O)NNC(=O)c1ccc2ccccc2c1O | inconclusive: 28.2 µM [quencher, side channel, partial curve]
32 | Cc1[nH]n(C(N)=S)c(=O)c1N=Nc1cccc(C(F)(F)F)c1 | inconclusive: 10 µM [quencher, side channel, partial curve]
33 | COc1cc(NC2=Nc3cccc4cccc2c34)cc(OC)c1OC | inconclusive: 39.8 µM [quencher, side channel, single point]
34 | O=C(OCC(=O)N1CCCC1)c1ccccc1OCc1ccccc1 | inconclusive: 12.6 µM [inhibitor, partial curve]
35 | CN(C)Cc1c(C(=O)N/N=C/c2ccccc2OCc2ccc(F)cc2)nnn1-c1nonc1N | inconclusive: 35.5 µM [fluorescent, side channel, partial curve]
36 | C/C(=N/Nc1ncc(Br)cn1)c1ccc(Br)cc1 | inconclusive: 39.8 µM [fluorescent, side channel, single point]
37 | CSc1nc(N)nc(SCC(=O)c2ccc(C)cc2)c1C#N | inconclusive: 39.8 µM [inhibitor, single point]
38 | O=C(Nc1nccs1)c1cc(-c2ccccn2)nc2c(Cl)cccc12 | inconclusive: 3.55 µM [quencher, side channel, partial curve]
39 | O=C(O)c1[nH]c2ccccc2c1NS(=O)(=O)Cc1ccccc1 | inconclusive: 39.8 µM [quencher, side channel, single point]
40 | CCCC(=O)NC(=S)Nc1cccc(NC(=O)c2ccccc2)c1 | inconclusive: 14.1 µM [quencher, side channel, partial curve]
41 | CCOC(=O)C1=C(C)NC(C)=C(C(=O)OCC)C1c1ccccc1C=CC(=O)OC(C)(C)C | inactive
42 | N#Cc1ccc(CN2CCC3(CC2)CCN(C(=O)c2cc(C(F)(F)F)cc(C(F)(F)F)c2)CC3)cc1 | inactive

Row | SMILES | Potency
43 | O=C(O)CCC(NC(=O)c1cncc(O)c1)C(=O)O (stereo unspecified) | inactive
44 | CSc1nc(N)nc(SCC(=O)Nc2cccc(F)c2)c1C#N | inconclusive: 39.8 µM [quencher, side channel, single point]
45 | CCN(CC)S(=O)(=O)c1cccc(C(=O)Nc2sc3c(c2C(N)=O)CCCC3)c1 | inconclusive: 11.2 µM [quencher, side channel, partial curve]
46 | Cc1ccc(Cn2c(/C=C/c3ccco3)nc3ccccc32)cc1 | inconclusive: 25.1 µM [quencher, side channel, single point]
47 | COc1ccc(OCCSCc2nnc(NC(=O)Nc3ccc(Cl)cc3)s2)cc1 | inconclusive: 17.8 µM [inhibitor, single point]
48 | O=C(NCCCn1ccnc1)c1ccc(Br)c(S(=O)(=O)N2CCOCC2)c1 | inactive
49 | CC1CC=CC2C1C(=O)N(Cc1ccccc1)C2c1ccc(F)c(-c2ccc(N(C)C)cc2)c1 (stereo unspecified) | inactive
50 | CCN(CC)S(=O)(=O)c1ccc(N/N=C/c2ccc(O)cc2O)nc1 | inconclusive: 3.55 µM [quencher, side channel, full curve]
51 | CCc1ccc(NSc2ccccc2[N+](=O)[O-])cc1 | inconclusive: 20 µM [quencher, side channel, partial curve]
52 | O=C1NN(c2ccc(Cl)c(Cl)c2)C(=O)/C1=C/c1cccc(OC(=O)c2cccs2)c1 | inconclusive: 39.8 µM [quencher, partial curve]
53 | Cc1ccc(NC(=O)COn2nnc3ccc(S(=O)(=O)N(C)C)cc32)cc1F | inconclusive: 39.8 µM [quencher, side channel, single point]
54 | CN(C)CCN(Cc1ccco1)C(=O)c1cc2c(Cl)nc3ccccc3c2s1 | inactive
55 | COc1ccc(CN=C2Nc3ccccc3CS2)cc1 | inactive
56 | COc1cc(NC(=O)COC(=O)/C=C/c2ccc(Cl)cc2Cl)cc(OC)c1 | inconclusive: 12.6 µM [quencher, side channel, partial curve]
57 | Cc1cc(N2CCN(C)CC2)nc2ccc(NC(=S)N3CCN(c4ccccn4)CC3)cc12 | inactive
58 | CCNC(=S)NN=C1c2ccccc2-c2ccccc21 | inconclusive: 11.2 µM [quencher, side channel, partial curve]
59 | O=C(CN(C(=O)CCC(=O)Nc1nccs1)c1cccc(F)c1)NCc1ccc(F)cc1 | inconclusive: 39.8 µM [fluorescent, side channel, single point]
60 | CCNC(=O)/C(C#N)=C/c1c(N2CCCCCC2)nc2c(C)cccn2c1=O | inconclusive: 12.6 µM [fluorescent, side channel, partial curve]
61 | CN1C(=O)CC(C(=O)Nc2ccc(F)cc2)SC1=Nc1ccc2c(c1)OCO2 (stereo unspecified) | inconclusive: 25.1 µM [quencher, side channel, single point]
